From PubChem BioAssay (Tox21)
Where “and” joins values, the source holds several entries; their conditions need not be identical. Equal values may be shown once. This list was built around the results that the source calls inconclusive (neither active nor inactive); the mix of calls is not that of the screen. Potencies of inconclusive entries are doubtful fits and often do not repeat. A structure can be active in one record and inactive in another. Calls of active or inactive are those of the source. The call rests on the fitted dose curve; in most records, active means well fitted cell-killing curve with a large enough effect in the repeat runs; inconclusive means weak or mixed curves, or effect the other way; inactive means flat fitted curve, though single readings scatter.

Tests used:
[1] = cAMP Responsive Elements (CRE) small molecule antagonists, cell-based qHTS assay: qHTS cell viability counter screen (AID 2060913); further: nearly all actives have a fitted effect of over 40% in size
Outline: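 Cytotoxicity counter screen multiplexed with the CRE-bla antagonist read: HEK293T cells in DMEM with dialyzed FBS and 25 mM HEPES were treated 3 hrs under 0.25 uM final NKH477, then viability measured by CellTiter-Glo luminescence.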

[2] = cAMP Responsive Elements (CRE) small molecule agonists, cell-based qHTS assay: qHTS cell viability counter screen (AID 2060914);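 further: viability read after 3 h of compound exposure; nearly all actives have a fitted effect of over 50% in size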
Outline: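 CRE-bla HEK 293T cells, plated 18 h at 37 °C, were exposed to compounds for 3 h at 37 °C/5% CO2. Viability was then measured in the same wells by CellTiter-Glo luminescence after 30 min at room temperature.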
On the % scale 0 is the no-effect control and ±100 the full control effect; potency means the concentration at half of the fitted maximal effect; tags describe the fitted curve by direction and shape.

Row | SMILES | Potency [1] | Potency [2]
1 | O=C1c2ccccc2C(=O)C1(O)O | inconclusive: 68.9 µM [cytotoxic, single point] | inconclusive: 68.9 µM [cytotoxic, single point]
2 | CN(C)c1ccc(C(=C2C=CC(=[N+](C)C)C=C2)c2ccc(N(C)C)cc2)cc1 | active: 30.5 µM and active: 61.1 µM and active: 29.8 µM | active: 48.3 µM and active: 61.1 µM and active: 29.8 µM
3 | CCCCCCOC(=O)NC(=N)c1ccc(NCc2nc3cc(C(=O)N(CCC(=O)OCC)c4ccccn4)ccc3n2C)cc1 | active: 26.6 µM | inconclusive: 33.5 µM [cytotoxic, single point]
4 | C[C@@H]1CC[C@H]2C(C)(C)[C@H]3C[C@@]12CC[C@@]3(C)O | inactive | inactive
5 | COc1cccc(-c2ccc(/C=C\CN3CCCCCC3)cc2Cl)c1 | inconclusive: 60.9 µM [cytotoxic, single point] | inconclusive: 2.16 µM [cytotoxic, full curve, poor fit]
6 | CCCCCCCCNC(C)C(O)c1ccc(SC(C)C)cc1 (stereo not drawn) | inconclusive: 26.6 µM [cytotoxic, single point] | inconclusive: 29.8 µM [cytotoxic, single point]
7 | Cc1cc(O)c(C(C)(C)C)cc1C(C)(C)C | active: 43.3 µM | active: 48.6 µM
8 | CCCCCCCCCCCCCCCC[N+](C)(C)CCN(Cc1ccc(OC)cc1)c1ncccn1 | inconclusive: 29.8 µM [cytotoxic, single point] | active: 26.6 µM
9 | CCCCCCCCCc1ccc(OCCOCCO)cc1 | active: 22.8 µM | inconclusive: 14.4 µM [cytotoxic, partial curve]
10 | CC(=O)[C@H]1CC[C@H]2[C@@H]3CCC4=CC(=O)CC[C@]4(C)[C@H]3CC[C@]12C | active: 60.8 µM and active: 61.1 µM | inconclusive: 54.2 µM [cytotoxic, partial curve]
11 | ON=C1CCCCC1 | inconclusive: 57 µM [cytotoxic, partial curve] | inconclusive: 27.3 µM [cytotoxic, single point]
12 | C=CC(=O)OCC(CO)(COCC(COC(=O)C=C)(COC(=O)C=C)COC(=O)C=C)COC(=O)C=C | active: 30.3 µM | active: 42.7 µM
13 | CC(C)(C)CC(C)(C)c1ccc(OCCOCC[N+](C)(C)Cc2ccccc2)cc1 | active: 27.3 µM and active: 29.8 µM | active: 54.4 µM and active: 29.8 µM
14 | O=c1[nH]sc2ccccc12 | inconclusive: 68.6 µM [cytotoxic, single point] | inconclusive: 15.4 µM [cytotoxic, single point]
15 | CC(S)C(C)S (stereo not drawn) | inactive | inconclusive: 16.3 µM [cytotoxic, single point]
16 | O=C1C=CC(=O)N1c1ccccc1 | inconclusive: 68.6 µM [cytotoxic, single point] | inconclusive: 68.6 µM [cytotoxic, single point]
17 | N=C1N=C(N)c2cc3ccccc3cc21 | inconclusive: 27.3 µM [rising, partial curve, poor fit] | inconclusive: 17.2 µM [rising, partial curve, poor fit]
18 | Oc1ccc(C2(c3ccc(O)cc3)CC3CC2C2CCCC32)cc1 (stereo not drawn) | inconclusive: 65.9 µM [cytotoxic, single point] | inconclusive: 65.9 µM [cytotoxic, partial curve, poor fit]
19 | O=C(O)c1cccc(C(=O)O)c1 | inconclusive: 24.7 µM [rising, partial curve, poor fit] | inactive
20 | Cc1nc(N)nc(N)c1-c1ccc(Cl)c(Cl)c1 | inconclusive: 2.98 µM [cytotoxic, full curve] | inconclusive: 5.96 µM [cytotoxic, single point]
21 | CC(C)(c1ccc(O)cc1)c1ccc(O)cc1 | inconclusive: 0.248 µM [cytotoxic, single point] | inconclusive: 12.4 µM [rising, full curve, poor fit]
22 | CC1(c2ccccc2)OC(C(=O)O)=CC1=O (stereo not drawn) | inactive | inactive
23 | CC(=O)NC1(c2cccc(F)c2)CCN(CC[C@@]2(c3ccc(Cl)c(Cl)c3)CN(c3ccccc3)C(=O)CO2)CC1 | inconclusive: 54.6 µM [cytotoxic, single point] | inconclusive: 61.3 µM [cytotoxic, single point]

Row | SMILES | Potency [1] | Potency [2]
24 | CCCCCCCCCCCCc1ccccc1O | active: 53.8 µM and active: 32 µM | active: 60.3 µM and active: 54.5 µM
25 | CCCCCCCCCCCCCC[N+](C)(C)Cc1ccccc1 | active: 55.3 µM and active: 26.6 µM and active: 15.8 mM | active: 22 µM and active: 11.9 µM
26 | O=C1NCN(c2ccccc2)C12CCN(CCCC(c1ccc(F)cc1)c1ccc(F)cc1)CC2 | inconclusive: 29.8 µM [cytotoxic] | inconclusive: 18.8 µM [cytotoxic, single point]
27 | CCCCc1oc2ccc(NS(C)(=O)=O)cc2c1C(=O)c1ccc(OCCCN(CCCC)CCCC)cc1 | inconclusive: 33.5 µM [cytotoxic, single point] | inconclusive: 33.5 µM [cytotoxic, single point]
28 | Cc1ccc2ncccc2c1 | – | inconclusive: 1.37 µM [cytotoxic, single point] and active: 54.5 µM
29 | O=C(Nc1ccc(S(=O)(=O)N2CCOCC2)cc1)c1cc(Cl)ccc1NS(=O)(=O)c1ccc(Cl)s1 | – | inconclusive: 33.5 µM [cytotoxic, single point]
30 | C[C@H]1O[C@@H](O[C@H]2[C@@H](O)C[C@H](O[C@H]3[C@@H](O)C[C@H](O[C@H]4CC[C@@]5(C)[C@H](CC[C@@H]6[C@@H]5C[C@@H](O)[C@]5(C)[C@@H](C7=CC(=O)OC7)CC[C@]65O)C4)O[C@@H]3C)O[C@@H]2C)C[C@H](O)[C@@H]1O | inconclusive: 61.2 nM [cytotoxic, full curve] and active: 63.2 nM | inconclusive: 122 nM [cytotoxic, full curve] and inconclusive: 95.8 nM [cytotoxic, full curve]
31 | Oc1ccc(C2(c3ccc(O)c(C4CCCCC4)c3)CCCCC2)cc1C1CCCCC1 | active: 43.3 µM | inconclusive: 68.6 µM [cytotoxic, single point]
32 | COc1cc(-c2nc(NC(=O)c3cc4cc(C)cc(C)c4n3CC(=O)O)sc2CCC2CCCCC2)c(OC)cc1Cl | active: 25 µM | active: 25 µM
33 | CCCCC(CC)COC(=O)COc1ccc(Cl)cc1C (stereo not drawn) | inconclusive: 24.3 µM [cytotoxic, single point] | inconclusive: 0.172 µM [rising, partial curve, poor fit]
34 | Cc1cc(CCN2CCN(c3nsc4ccccc34)CC2)cc2c1NC(=O)CC2(C)C | active: 68.6 µM | active: 68.6 µM
35 | CCC(C)CO (stereo not drawn) | inconclusive: 2.27 µM [cytotoxic, single point] | inconclusive: 85.2 µM [cytotoxic, single point]
36 | CN(C)c1ccc(C(=C2C=CC(=[N+](C)C)C=C2)c2ccccc2)cc1 | inconclusive: 13.3 µM [cytotoxic, single point] [middle of 4 runs] | inconclusive: 21.1 µM [cytotoxic, partial curve]
37 | CCCCCCCC[N+](CCCCCCCC)(CCCCCCCC)CCCCCCCC | active: 19.3 µM | active: 30.6 µM
38 | CC[C@H](c1ccc(O)cc1)[C@@H](CC)c1ccc(O)cc1 | inconclusive: 54.5 µM [cytotoxic, partial curve, poor fit] | inconclusive: 3.86 µM [cytotoxic, partial curve, poor fit]
39 | CC/C(=C(\c1ccc(O)cc1)c1ccc(OCCN(C)C)cc1)c1ccccc1 | active: 68.7 µM | inconclusive: 77.1 µM [cytotoxic, single point]
40 | Cc1cc(O)c2ccccc2c1O | inconclusive: 33.5 µM [cytotoxic] | inconclusive: 33.5 µM [cytotoxic, single point]
41 | CCCCCCCCCCCCCC[n+]1ccccc1 | active: 48.6 µM | active: 61.1 µM
42 | O=S(=O)(O)c1ccc(Nc2nc(Nc3ccc(/C=C/c4ccc(Nc5nc(Nc6ccc(S(=O)(=O)O)cc6)nc(N(CCO)CCO)n5)cc4S(=O)(=O)O)c(S(=O)(=O)O)c3)nc(N(CCO)CCO)n2)cc1 | inactive | inconclusive: 0.924 µM [cytotoxic, single point]
43 | C=CC(=O)OCC(CO)(COC(=O)C=C)COC(=O)C=C | inconclusive: 68.8 µM [cytotoxic, single point] and active: 28.5 µM | inconclusive: 77.2 µM [cytotoxic, single point] and inconclusive: 77 µM [cytotoxic, single point]
44 | CN(C/C=C/c1ccccc1)Cc1cccc2ccccc12 | active: 29.8 µM | inconclusive: 18.8 µM [cytotoxic, partial curve, poor fit]
45 | O=C(Nc1ccc(Cl)c(Cl)c1)c1cc(Cl)cc(Cl)c1O | inconclusive: 10.9 µM [cytotoxic, full curve] | inconclusive: 15.4 µM [cytotoxic, full curve]
